# Measured values from PubChem BioAssay AID652104 (National Center for Advancing Translational Sciences (NCATS), 2013).
# “And” between values parts separate entries of the source, which are not always exact repeats. Identical values can stand only once. About 7,200 (1.8%) of roughly 410,000 compounds were called active. The inconclusive results got no clear call from the source; some entries with a clear call stand among them for comparison. Calls follow the shape of the dose curve; as a rule, active = well fitted activation curve with a large enough effect; inconclusive = small, poorly fitted or top-dose-only effect, or another doubt; inactive = no such curve, though single readings can be large or run the other way. Potencies beside an inconclusive call are fits to weak or partial responses and may not hold up.
# Assay: qHTS of TDP-43 Inhibitors; also: nearly all actives have a fitted effect of over 50% in size; as to growth rescue (activation): % of control where 0% means no effect
# Conditions: TDP-43 expressing yeast growth rescue, BacTiter-Glo, 24 h; growth rescue (activation): at 46.1 µM (top of the series)
# Outline: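 Cell-based yeast growth screen: TDP-43 expression induced in galactose, inoculum OD600=0.02 after raffinose pregrowth to mid-log. Read-out BacTiter-Glo luminescence at 24 hr, 30 deg C; inhibition of toxicity seen as signal increase.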
# Potency is read from the fitted curve at half-maximal effect; tags tell the direction and shape of the fitted curve.
SMILES,Potency,growth rescue (activation)
Cc1cc(C)cc(NC(=O)CN2C(=O)CN=C(c3ccccc3)c3cc(Cl)ccc32)c1,"inconclusive: 35.5 µM [activator, single point]",
CCCCn1c(=O)c(C(=O)Nc2ncccc2C)c(O)c2ccccc21,"inconclusive: 14.1 µM [activator, single point]",
N#CC(C#N)=Cc1ccc(C=C(C#N)C#N)cc1,,inactive: -2.12%
N#Cc1ccccc1Cn1cc(C(=O)C2CC2)c2ccccc21,active: 20 µM,
Cc1cccc(NC(=O)c2ccc(S(=O)(=O)N(C)CC3CCCO3)cc2)c1C (configuration not stated),"inconclusive: 10 µM [activator, partial curve]",
CN1CCc2nc3sc(C(=O)NC(C)(C)C)c(N)c3cc2C1,"inconclusive: 31.6 µM [activator, single point]",
CCC1(O)CCC2C3CCC4=CC(=O)CCC4C3CCC21CC (configuration not stated),"inconclusive: 10 µM [activator, partial curve]",
O=c1c2ccccc2[nH]c(=S)n1-c1ccc2c(c1)OCO2,"inconclusive: 25.1 µM [activator, single point]",
O=c1[nH]c2ccccc2n1C1CCN(C(c2ccccc2OC(F)(F)F)c2nnnn2Cc2ccccc2)CC1 (configuration not stated),,inactive: 25%
O=C(Nc1ccc(Cl)c(Cl)c1)c1ccco1,"inconclusive: 2.82 µM [activator, partial curve]",
C=CCN1C(=O)NC(=O)/C(=C\c2ccc(-c3ccccc3[N+](=O)[O-])o2)C1=O,"inconclusive: 35.5 µM [activator, single point]",
COC(=O)C1C2c3ccccc3OC1(C)N=c1s/c(=C/c3cnn(C)c3)c(=O)n12 (configuration not stated),,inactive: -7.91%
S=C(NCCc1ccccc1)N1Cc2cc(-c3ccccc3)ccc2-n2nncc2C1,"inconclusive: 10 µM [activator, partial curve]",
Cc1ccccc1OCCN=Cc1c(O)n(C)c(=O)n(C)c1=O,"inconclusive: 35.5 µM [activator, single point]",
Cn1c(=O)c2c(nc(N/N=C/c3c(O)n(C4CCCCC4)c(=S)[nH]c3=O)n2C)n(C)c1=O,"inconclusive: 8.91 µM [activator, partial curve]",
CN1C(CC(O)c2ccccc2)CCCC1CC(O)c1ccccc1 (configuration not stated),"inconclusive: 15.8 µM [activator, partial curve, poor fit]",
CCC(=O)c1cn(Cc2ccccc2C#N)c2ccccc12,active: 25.1 µM,
C[N+](C)(C)CC1CCCC(C[N+](C)(C)C)C1=O (configuration not stated),,inactive: 20.2%
COc1cc([N+](=O)[O-])c2nc(C)ccc2c1[N+](=O)[O-],"inconclusive: 17.8 µM [activator, partial curve]",
CN(C)c1ccc(C=C2C(=O)NC(=S)NC2=O)cc1,"inconclusive: 20 µM [activator, single point]",
Cc1c(CCC(=O)N2CCCCC2)c(=O)oc2cc3occ(C(C)(C)C)c3cc12,"inconclusive: 28.2 µM [activator, single point]",
NC(N)=N/N=C/c1ccc(N(c2ccccc2)c2ccccc2)cc1,"inconclusive: 25.1 µM [activator, single point]",
O=C1C(=O)c2ccccc2-c2ccccc21,,inconclusive: -92.4% [activator]

SMILES,Potency,growth rescue (activation)
CCCCCCCCN1C(=O)[C@H](CC(=O)N2CCCCC2)C[C@@]2(C(=O)OCC)CCCC=C12,,inactive: -42.1%
C#CCN[C@H](C)Cc1ccccc1,"inconclusive: 0.562 µM [activator, full curve, poor fit]",
Cc1nn(C(C)(C)C)c(C)c1/C=N/OC(=O)Nc1ccc(Cl)cc1,"inconclusive: 12.6 µM [activator, single point]",
Cc1ccccc1-c1nn2c(=O)cc(CN3CCN(C(=O)COc4ccccc4Cl)CC3)nc2s1,"inconclusive: 35.5 µM [activator, single point]",
O=c1[nH]c2ccccc2n1C1CCN(C(c2ccnc3ccccc23)c2nnnn2Cc2ccccc2)CC1 (configuration not stated),,inactive: 10.3%
O=Cc1cn(Cc2ccc(Br)cc2)c2ccccc12,"inconclusive: 12.6 µM [activator, partial curve]",
C#CCOCCOCCOCCNc1nc(N2CCN(C(=O)CCCCCCCCCCNC(=O)[C@H]([C@@H](C)CC)n3cc(CCCCN=C(N)N)nn3)CC2)nc(N2CCN(C(=O)CCCCCCCCCCNC(=O)[C@H](CO)n3cc(CCCCCN)nn3)CC2)n1,"inconclusive: 10 µM [activator, partial curve]",
Cc1ccc(-n2c(/C=C\c3ccc(F)c(F)c3)nc3ccccc3c2=O)c(C)c1,"inconclusive: 2.51 µM [activator, full curve]",
C[n+]1c(-c2ccccc2)sc2ccccc21,"inconclusive: 31.6 µM [activator, partial curve, poor fit]",
COc1cc(C(C#N)N2CCOCC2)ccc1O (configuration not stated),"inconclusive: 11.2 µM [activator, partial curve]",
COC(=O)CC(NC(=S)N1CC2C[C@@H](C1)Cn1c2cccc1=O)C(=O)OC (some centres not stated),,inactive: -4.56%
CC(=NCCC1=CCCCC1)c1c(O)[nH]c(=O)[nH]c1=O,,inactive: 9.94%
Cc1ccccc1C(=O)Nc1cc(-c2ccc(Cl)cc2)nn1-c1ccccc1,"inconclusive: 6.31 µM [activator, partial curve]",
CN(CCOc1ccc(C=C2C(=O)NC(=O)NC2=O)cc1)c1ccccn1,,inactive: -1.62%
O=C(C1CCN(S(=O)(=O)c2ccc(Br)s2)CC1)N1CCN(c2ccccc2)CC1,"inactive and inconclusive: 11.2 µM [activator, single point]",
COc1cccc(N=Cc2c(O)n(Cc3ccco3)c(=O)[nH]c2=O)c1,,inactive: 11.4%
CCOc1ccc(N(C(C)C(=O)Nc2cc(Cl)ccc2OC)S(C)(=O)=O)cc1 (configuration not stated),"inconclusive: 7.94 µM [activator, partial curve]",
CN(C)C1C(=O)C(C(N)=O)=C(O)C2(O)C(=O)C3=C(O)c4c(O)cccc4C(C)(O)C3C(O)C12 (configuration not stated),"inconclusive: 35.5 µM [activator, partial curve, poor fit]",
CC(=O)c1cn(Cc2ccc(F)cc2)c2ccccc12,"inconclusive: 35.5 µM [activator, single point]",
CCc1ccccc1N1C(=O)NC(=O)/C(=C\c2cc(C)n(C)c2C)C1=O,,inactive: 7.15%
C[N+](C)(C)Cc1ccccc1,,inactive: 9.53%
O=C(c1cc(S(=O)(=O)N2CCCCC2)ccc1F)N1CCC2(CC1)OCCO2,,inactive: -23.3%
O=C(Nc1ccc(Br)cc1C(=O)c1ccccc1Cl)c1ccc(Br)cc1,"inconclusive: 4.47 µM [activator, partial curve]",

SMILES,Potency,growth rescue (activation)
O=c1c2ccccc2[nH]c(=S)n1-c1cccc(Cl)c1,"inconclusive: 3.98 µM [activator, single point]",
CCCc1cc(N2CCN(c3cccc(C)c3C)CC2)n2cnnc2n1,active: 15.8 µM,
Cc1ccc(NC(=O)Nc2ccc3nc(N4CCN(C)CC4)cc(C)c3c2)cc1F,"inconclusive: 35.5 µM [activator, single point]",
COC(=O)c1cc2c(s1)=NC=NP=2(N1CCOCC1)N1CCOCC1,inactive,
CCc1ccc(-n2nc(C)c3c2NC(=O)CSC3c2ccc(C(=O)OC)cc2)cc1 (configuration not stated),"inconclusive: 17.8 µM [activator, single point]",
Cc1ccccc1-c1nc(CN2C(=O)CN=C(c3ccccc3)c3ccccc32)c(C)o1,"inconclusive: 28.2 µM [activator, single point]",
O=C(CN1CCN(S(=O)(=O)c2cc(Br)ccc2Br)CC1)NCc1ccccc1Cl,"inconclusive: 35.5 µM [activator, single point]",
CCCCn1c(NC(=O)c2ccc(Br)o2)c(C(=O)OCC)c2nc3ccccc3nc21,,inactive: 2.7%
COc1ccc(-c2nc3ccccc3c(=O)n2-c2ccc(OC)cc2)cc1,,inactive: 21%
OC1CCC(Nc2ccn3nc(-c4cccc(OCc5ccccc5)c4)cc3n2)CC1 (configuration not stated),active: 35.5 µM,
Cn1c(NN=O)nc2ccccc21,"inconclusive: 22.4 µM [activator, single point]",
COC(=O)C1=C(c2ccc(F)cc2OCc2ccccc2)C[C@@H]2CC[C@H]1N2C(=O)NCc1ccc(F)cc1,"inconclusive: 35.5 µM [activator, single point]",
O=C1NC(=O)N(Cc2ccc(F)cc2)C(=O)/C1=C/c1cccs1,"inconclusive: 35.5 µM [activator, single point]",
CCC1(c2cccc(O)c2)CCCCN(C)C1 (configuration not stated),"inconclusive: 35.5 µM [activator, partial curve, poor fit]",
COC(=O)C1=C(c2ccc(Cl)c(C(F)(F)F)c2)C[C@@H]2CC[C@H]1N2C(=O)NCCOc1ccccc1,active: 22.4 µM,
Nc1cccc(N=Cc2c(O)n(Cc3ccc(F)cc3)c(=O)[nH]c2=O)c1,,inactive: 7.45%
Cc1oc(-c2ccccc2Cl)nc1CN1C(=O)CN=C(c2ccccc2)c2ccccc21,active: 35.5 µM,
COC(=O)C1=C(c2ccc(F)cc2F)C[C@@H]2CC[C@H]1N2C(=O)N1CCC(O)(c2ccc(Cl)cc2)CC1,active: 20 µM,
COc1c(C)cc(Br)cc1C(=O)Nc1ccc(-c2nc3ncccc3o2)cc1,"inconclusive: 1.78 µM [activator, partial curve]",
Cc1cccc(-n2c(/C=C/c3ccc([N+](=O)[O-])o3)nc3ccccc3c2=O)c1,"inconclusive: 0.562 µM [activator, full curve, poor fit]",
C[C@@H]1CC[C@H]2[C@@H](C)C(=O)O[C@@H]3O[C@@]4(C)CC[C@@H]1[C@]32OO4,active: 4.47 µM,
